Data as given in the supplement of paper PMC10126150.
Values marked as one replicate rest on one cluster of the flow cell; about a third of the high ones do not repeat.
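Note: ATP exposure 15 min at 22 °C before imaging.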

Each sequence was assayed on ATP (assay: switch fluorescence ratio, 500 uM ATP over buffer (Cy3 cluster intensity, sum of 5 cycles each) (fold (ratio)); higher = stronger signal-on switching upon ATP binding; sequences stand for … in TCGTCGGCAGCGTCAGATGTGTATAAGAGACAGTTTTTTTTTTTTTTTTTTTTTTTTT…TC). Details: aptamer strand: ATP DNA aptamer (quencher-CACCTGGGGGAGTATTGCGGAGGAAGG + anchor), 100 nM annealed; ATP concentration: 500 uM; one replicate.
Procedure, shortened: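 Clusters carrying Cy3-labelled switching strands on a modified Illumina MiSeq flow-cell were annealed to 100 nM quencher-labelled ATP aptamer and imaged in selection buffer. They were imaged again after 15 min with 500 uM ATP at 22 °C, over five buffer/ATP cycles with NaOH stripping and re-annealing in between. For each cluster, the fluorescence ratio is the summed Cy3 intensity of the target cycles divided by that of the buffer cycles, averaged per switch-domain sequence. Clusters outside 100-1000 RFU were left out.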
In the case of ATTGGAAGGG, the switch fluorescence ratio is reported as 1.01.
Sequence ATTGGACGAG has a switch fluorescence ratio of 1.
ATTGGACTTT was tested, and the switch fluorescence ratio was 1.02.
Work on ATTGGAGTGA yielded a switch fluorescence ratio of 0.966.
With ATTGGATCGC the switch fluorescence ratio was 1.04.
For ATTGGATGTT, the switch fluorescence ratio was 1.
ATTGGCCCTG showed a switch fluorescence ratio of 0.992.
ATTGGGAG was tested, and the switch fluorescence ratio was 1.01.
In the case of ATTGGGCATA, the switch fluorescence ratio is reported as 0.979.
In the case of ATTGGGCGGA, the switch fluorescence ratio is reported as 1.03.
With ATTGGGGGCT the switch fluorescence ratio was 0.985.
With ATTGGGTGAT the switch fluorescence ratio was 0.998.
ATTGGTAAAG was tested, and the switch fluorescence ratio was 1.
ATTGGTCATT gave a switch fluorescence ratio of 0.994.
ATTGGTGTGG was tested, and the switch fluorescence ratio was 0.963.
For ATTGGTTTCC, the switch fluorescence ratio was 1.07.
For ATTGTACCTC, the switch fluorescence ratio was 1.03.
Sequence ATTGTAGTTA has a switch fluorescence ratio of 1.02.
ATTGTGCTCC showed a switch fluorescence ratio of 1.03.
In the case of ATTTAAATAT, the switch fluorescence ratio is reported as 0.972.
With ATTTAAGTTT the switch fluorescence ratio was 0.974.
ATTTAATGTA gave a switch fluorescence ratio of 1.06.
For ATTTACCATG, the switch fluorescence ratio was 1.01.
For ATTTACGTC, the switch fluorescence ratio was 1.02.
ATTTACTGAC was tested, and the switch fluorescence ratio was 1.24.
Sequence ATTTAGCGC has a switch fluorescence ratio of 0.995.
For ATTTATCAGA, the switch fluorescence ratio was 1.
In the case of ATTTATGGAC, the switch fluorescence ratio is reported as 0.967.
For ATTTCAATGG, the switch fluorescence ratio was 1.02.
For ATTTCATCTA, the switch fluorescence ratio was 0.96.
With ATTTCGGAAA the switch fluorescence ratio was 0.999.
With ATTTCTATTA the switch fluorescence ratio was 1.02.
With ATTTCTGCAA the switch fluorescence ratio was 2.88.
Sequence ATTTCTTATA has a switch fluorescence ratio of 1.03.
In the case of ATTTCTTCGC, the switch fluorescence ratio is reported as 1.31.
For ATTTGAAGCT, the switch fluorescence ratio was 0.843.
ATTTGACGTG showed a switch fluorescence ratio of 1.06.
ATTTGACTA was tested, and the switch fluorescence ratio was 1.
ATTTGATAA showed a switch fluorescence ratio of 0.993.
For ATTTGATGAT, the switch fluorescence ratio was 1.01.
ATTTGATTGC gave a switch fluorescence ratio of 1.01.
With ATTTGCCCAG the switch fluorescence ratio was 1.04.
Work on ATTTGCGTGG yielded a switch fluorescence ratio of 0.95.
Work on ATTTGTAAG yielded a switch fluorescence ratio of 1.01.
Work on ATTTGTACAG yielded a switch fluorescence ratio of 1.02.
ATTTGTACGC showed a switch fluorescence ratio of 1.05.
ATTTGTCACG was tested, and the switch fluorescence ratio was 1.
Work on ATTTGTGTGC yielded a switch fluorescence ratio of 1.01.
ATTTTCACGC showed a switch fluorescence ratio of 1.08.
ATTTTCCCGC showed a switch fluorescence ratio of 1.11.
For ATTTTCGACT, the switch fluorescence ratio was 1.02.
ATTTTCGGGA gave a switch fluorescence ratio of 0.993.
With ATTTTCTCGA the switch fluorescence ratio was 0.973.
ATTTTCTGTG showed a switch fluorescence ratio of 0.995.
With ATTTTTGCAC the switch fluorescence ratio was 1.
ATTTTTTAA gave a switch fluorescence ratio of 0.934.
ATTTTTTAT gave a switch fluorescence ratio of 1.01.
For CAAAAAGGGC, the switch fluorescence ratio was 1.01.
With CAAAACACTA the switch fluorescence ratio was 1.04.
Work on CAAAAGCGCG yielded a switch fluorescence ratio of 1.13.
CAAAATGGCG showed a switch fluorescence ratio of 1.01.
With CAAAATTAAT the switch fluorescence ratio was 0.987.
For CAAACAAGGA, the switch fluorescence ratio was 0.972.
With CAAACCTCAA the switch fluorescence ratio was 1.09.
With CAAAGAAGAC the switch fluorescence ratio was 1.05.
Work on CAAAGAAGGC yielded a switch fluorescence ratio of 1.06.
CAAAGATGCT was tested, and the switch fluorescence ratio was 1.4.
For CAAAGGAGTT, the switch fluorescence ratio was 1.01.
In the case of CAAAGGCATT, the switch fluorescence ratio is reported as 0.96.
Sequence CAAAGGGTCA has a switch fluorescence ratio of 0.979.
For CAAAGGTTAT, the switch fluorescence ratio was 0.978.
With CAAAGTAGGA the switch fluorescence ratio was 1.
CAAAGTAGGT showed a switch fluorescence ratio of 1.
For CAAAGTGCA, the switch fluorescence ratio was 1.
CAAAGTTATC showed a switch fluorescence ratio of 0.971.
CAAATACAGC gave a switch fluorescence ratio of 1.01.
CAAATACAGT was tested, and the switch fluorescence ratio was 0.996.
CAAATACATT gave a switch fluorescence ratio of 1.08.
CAAATGACAG showed a switch fluorescence ratio of 0.967.
With CAAATGATCC the switch fluorescence ratio was 0.998.
In the case of CAAATGCGAC, the switch fluorescence ratio is reported as 1.24.
In the case of CAAATGTTC, the switch fluorescence ratio is reported as 0.995.
Work on CAAATGTTGA yielded a switch fluorescence ratio of 1.02.
Work on CAAATTACCT yielded a switch fluorescence ratio of 1.28.
Work on CAAATTAGAA yielded a switch fluorescence ratio of 0.98.
Sequence CAAATTGTTC has a switch fluorescence ratio of 1.03.
CAACACTTGC showed a switch fluorescence ratio of 1.08.
Sequence CAACAGTTTA has a switch fluorescence ratio of 1.01.
With CAACCGATC the switch fluorescence ratio was 2.36.
In the case of CAACCGGGAT, the switch fluorescence ratio is reported as 1.16.
Sequence CAACGAGCTA has a switch fluorescence ratio of 1.1.
For CAACGGGTTG, the switch fluorescence ratio was 1.02.
Work on CAACGGTTC yielded a switch fluorescence ratio of 1.06.
Sequence CAACTATAGC has a switch fluorescence ratio of 1.04.
Sequence CAACTCGGAT has a switch fluorescence ratio of 1.01.
CAACTGAGTT gave a switch fluorescence ratio of 1.01.
For CAACTGTCGG, the switch fluorescence ratio was 1.01.
In the case of CAACTGTTGA, the switch fluorescence ratio is reported as 1.02.
In the case of CAACTTAAAC, the switch fluorescence ratio is reported as 1.06.
For CAACTTAACA, the switch fluorescence ratio was 1.09.
For CAACTTGC, the switch fluorescence ratio was 1.05.
Work on CAAGAAGCCC yielded a switch fluorescence ratio of 0.938.
Work on CAAGAAGGAG yielded a switch fluorescence ratio of 0.981.
In the case of CAAGAATCGC, the switch fluorescence ratio is reported as 0.974.
In the case of CAAGAATCGT, the switch fluorescence ratio is reported as 1.05.
CAAGAATTGC was tested, and the switch fluorescence ratio was 0.996.
CAAGACCAGC was tested, and the switch fluorescence ratio was 1.
With CAAGACTTTT the switch fluorescence ratio was 0.989.
Sequence CAAGAGACTC has a switch fluorescence ratio of 1.08.
Sequence CAAGAGGTTT has a switch fluorescence ratio of 0.964.
CAAGAGTGTT was tested, and the switch fluorescence ratio was 0.975.
With CAAGATAGTT the switch fluorescence ratio was 1.01.
Work on CAAGCACGGT yielded a switch fluorescence ratio of 1.25.
CAAGCGCGCG was tested, and the switch fluorescence ratio was 1.09.
CAAGCGGTCC was tested, and the switch fluorescence ratio was 1.14.
CAAGCTACTA showed a switch fluorescence ratio of 1.14.
In the case of CAAGCTCTCT, the switch fluorescence ratio is reported as 1.02.
CAAGCTTCCT was tested, and the switch fluorescence ratio was 1.99.
With CAAGGCCCGC the switch fluorescence ratio was 1.02.
CAAGGGATCA was tested, and the switch fluorescence ratio was 0.957.
With CAAGGGATCT the switch fluorescence ratio was 0.993.
CAAGGGGAAG showed a switch fluorescence ratio of 0.984.
In the case of CAAGGGGCGC, the switch fluorescence ratio is reported as 1.03.
CAAGGGGCTT showed a switch fluorescence ratio of 0.991.
CAAGGGTGC was tested, and the switch fluorescence ratio was 1.03.
Work on CAAGGTTTAG yielded a switch fluorescence ratio of 0.946.
For CAAGTCCTTA, the switch fluorescence ratio was 1.01.
Work on CAAGTCTACA yielded a switch fluorescence ratio of 1.05.
CAAGTGGAGG showed a switch fluorescence ratio of 1.03.
CAAGTGGGAA showed a switch fluorescence ratio of 1.01.
With CAAGTTACTG the switch fluorescence ratio was 1.12.
CAAGTTGGGC showed a switch fluorescence ratio of 0.993.
CAAGTTTCAT showed a switch fluorescence ratio of 0.954.
For CAAGTTTGCA, the switch fluorescence ratio was 0.986.
CAATAAAGTC showed a switch fluorescence ratio of 0.981.
CAATACCGCG showed a switch fluorescence ratio of 1.06.
With CAATACGCTT the switch fluorescence ratio was 1.15.
Sequence CAATAGGTTT has a switch fluorescence ratio of 1.02.
For CAATATAATG, the switch fluorescence ratio was 1.05.
CAATATCGGA gave a switch fluorescence ratio of 0.992.
In the case of CAATATGCTT, the switch fluorescence ratio is reported as 1.02.
In the case of CAATCAGCCT, the switch fluorescence ratio is reported as 1.09.
In the case of CAATCCCGAG, the switch fluorescence ratio is reported as 1.12.
Sequence CAATCGGAGG has a switch fluorescence ratio of 1.
For CAATCGTATG, the switch fluorescence ratio was 1.
CAATCTCAT gave a switch fluorescence ratio of 2.05.
CAATCTTGTA showed a switch fluorescence ratio of 0.99.
In the case of CAATGAGTTG, the switch fluorescence ratio is reported as 1.02.
In the case of CAATGCCACT, the switch fluorescence ratio is reported as 1.01.
CAATGCGTC showed a switch fluorescence ratio of 1.01.
In the case of CAATGCTATG, the switch fluorescence ratio is reported as 1.01.
CAATGTAGAG showed a switch fluorescence ratio of 0.992.
Sequence CAATGTGT has a switch fluorescence ratio of 1.04.
With CAATGTTGGT the switch fluorescence ratio was 1.03.
With CAATGTTGTA the switch fluorescence ratio was 1.01.
In the case of CAATTCAGGG, the switch fluorescence ratio is reported as 0.99.
For CAATTCGGGT, the switch fluorescence ratio was 1.01.
CAATTCTTGT was tested, and the switch fluorescence ratio was 1.01.
In the case of CAATTGTGGT, the switch fluorescence ratio is reported as 0.984.
For CAATTTACAT, the switch fluorescence ratio was 1.07.
CAATTTATAA gave a switch fluorescence ratio of 0.974.
Work on CAATTTGGGA yielded a switch fluorescence ratio of 0.958.
In the case of CACAAAGAGT, the switch fluorescence ratio is reported as 1.06.
Sequence CACAAATGTA has a switch fluorescence ratio of 1.
CACAACCATT showed a switch fluorescence ratio of 1.03.
With CACAAGAGGT the switch fluorescence ratio was 1.08.
In the case of CACAAGGTTC, the switch fluorescence ratio is reported as 0.996.
CACACACGGG showed a switch fluorescence ratio of 1.83.
With CACACGTGCC the switch fluorescence ratio was 1.04.
CACAGAAGTA gave a switch fluorescence ratio of 0.97.
Sequence CACAGCATAT has a switch fluorescence ratio of 1.86.
CACAGCGCAT gave a switch fluorescence ratio of 1.05.
Sequence CACAGGACAC has a switch fluorescence ratio of 1.08.
CACAGGCTAC showed a switch fluorescence ratio of 1.39.
Work on CACAGGGACG yielded a switch fluorescence ratio of 0.997.
CACAGGGGAA gave a switch fluorescence ratio of 1.11.
CACATATGA gave a switch fluorescence ratio of 1.07.
For CACATGCATC, the switch fluorescence ratio was 1.12.
Sequence CACATTAGGA has a switch fluorescence ratio of 1.05.
CACATTGAGC was tested, and the switch fluorescence ratio was 1.02.
CACATTTGGC showed a switch fluorescence ratio of 0.985.
With CACCAAAAGG the switch fluorescence ratio was 0.995.
CACCAATAAT gave a switch fluorescence ratio of 1.09.
CACCAATTAA was tested, and the switch fluorescence ratio was 1.01.
Work on CACCATTAGA yielded a switch fluorescence ratio of 0.981.
Sequence CACCCATTGT has a switch fluorescence ratio of 1.04.
For CACCCCACAG, the switch fluorescence ratio was 1.29.
Work on CACCCTGGGG yielded a switch fluorescence ratio of 1.05.
CACCGCACCT gave a switch fluorescence ratio of 1.98.
Sequence CACCGGAACC has a switch fluorescence ratio of 1.78.
For CACCGTGTCA, the switch fluorescence ratio was 1.03.
CACCTACCCT was tested, and the switch fluorescence ratio was 1.32.
In the case of CACCTGAGGG, the switch fluorescence ratio is reported as 0.963.
CACCTGCATA showed a switch fluorescence ratio of 1.7.
Work on CACCTTAA yielded a switch fluorescence ratio of 1.12.
Sequence CACCTTATAA has a switch fluorescence ratio of 1.03.
In the case of CACGAACACA, the switch fluorescence ratio is reported as 1.64.
With CACGAACATC the switch fluorescence ratio was 1.29.
Work on CACGAACGCT yielded a switch fluorescence ratio of 1.63.
CACGACATAG was tested, and the switch fluorescence ratio was 1.
With CACGAGGCTT the switch fluorescence ratio was 1.09.
